The values below come from publication PMC10668032.

This is one part of the list. At the low end of the ranking, values are background and their order means little.

This experiment deals with SIX1 homeodomain (reference allele) (UniProt Q15475). Nature of the experiment: universal protein binding microarray. The following applies: Universal all-10-mer PBM (8x60K, AMADID 030236), 300 nM GST-tagged protein, Alexa Fluor 488 anti-GST; buffer, salt, pH and temperature not stated; high values mean tight binding; most listed sequences are background and not binding sites; double strand, one strand shown.
Turning to CGCATGTC, the binding signal was -0.154 E-score.
For the sequence AGAGTACC, the binding signal is -0.135 E-score.
The figure for ATGCGACG is 0.103 E-score; for GACATAGC it is 0.0494 E-score; for CTGCGAAG it is -0.222 E-score.
With GCAAGCAC, the binding signal was -0.33 E-score.
The figure for GCTTAACC is -0.134 E-score.
For AGGACGCA the value was -0.259 E-score; for CAATAAGC, -0.0943 E-score.
Take CGGACAGA: the binding signal was 0.0236 E-score.
For the sequence AAGTCTCG, the binding signal was -0.0944 E-score.
The figure for CACAATCG is 0.00178 E-score; for CACGAAGG it is 0.0539 E-score; for CCTATCGC it is 0.29 E-score.
Turning to ATTGTAGC, the binding signal worked out at 0.0709 E-score.
For the sequence ACTTCTAC, the binding signal was -0.023 E-score.
For CAAATGGC the value was -0.155 E-score; for CACTCACA, 0.0495 E-score; for CCTGGTCG, -0.0285 E-score.
For CATTTTAA the value was -0.135 E-score; for CCACTCCC, 0.094 E-score.
On to ATATAGTG, for which the binding signal stood at 0.291 E-score.
For AGACTAGC, the binding signal was -0.245 E-score.
For AGGGTCGG the value was 0.0814 E-score; for ACCTAGTG, 0.0223 E-score; for AAACTTAG, -0.244 E-score.
Regarding AGTTTTCG, the binding signal is -0.191 E-score.
For CGGTATCA the value was 0.485 E-score; for CCGCCGCC, -0.0743 E-score.
The figure for AGTGGTGC is -0.213 E-score; for GATTCGAC it is -0.131 E-score.
The figure for GTTCCCTA is -0.111 E-score.
Turning to CATGTGGC, the binding signal was -0.115 E-score.
For GGAGGGCC the value was -0.175 E-score; for CAATTGCA, -0.217 E-score; for AACGGCGC, -0.233 E-score.
The figure for TAGCGGCA is 0.1 E-score; for AAGATGAT it is 0.156 E-score.
For ACAATGTG the value was -0.179 E-score.
ACGCACGT: the binding signal is -0.0658 E-score.
The figure for ATCAGCAC is 0.105 E-score; for ACACATTC it is -0.177 E-score.
With GCGGTAAA, the binding signal was -0.129 E-score.
Turning to AACACTGC, the binding signal is -0.25 E-score.
As for CTGTCAGC, the binding signal was -0.0915 E-score.
The figure for ATGGGGGC is -0.288 E-score.
The figure for AATAGAAC is -0.105 E-score; for CGCTCAGC it is -0.0797 E-score; for ACTATGCC it is 0.00714 E-score.
The figure for GTTTAAAA is -0.156 E-score; for ACGGTAGC it is -0.149 E-score.
As for AAGGCCTT, the binding signal is -0.419 E-score.
For the sequence GGTTAACA, the binding signal was found to be 0.0046 E-score.
Take AGCGTAAA: the binding signal is -0.165 E-score.
The figure for ACTGAAAA is -0.263 E-score; for CCTGAGTA it is 0.114 E-score; for CGCTGTCC it is -0.193 E-score.
The figure for ACGAAGCT is -0.139 E-score; for ACTTGTTG it is -0.224 E-score; for CGGTTCGC it is -0.0982 E-score.
For the sequence CATTAGCA, the binding signal was -0.0258 E-score.
With CCAATGCA, the binding signal was 0.00175 E-score.
Regarding GAGTCGCC, the binding signal is -0.151 E-score.
For CTTGTTGC the value was -0.216 E-score.
Consider CGGGGGTC, for which the binding signal amounted to 0.0628 E-score.
For the sequence CCGGCGAC, the binding signal was -0.00394 E-score.
For ATAGAGAT the value was 0.212 E-score.
Consider GATGCTCA, for which the binding signal is -0.161 E-score.
The figure for CCGTTGGA is -0.0757 E-score; for CGACTCGC it is 0.0358 E-score.
The figure for CCCAGGGG is 0.0478 E-score; for ATGTGCAC it is -0.258 E-score.
The figure for GTGCCTAA is -0.332 E-score; for ATTATCTA it is 0.0829 E-score.
Regarding GAAGTTGA, the binding signal is -0.164 E-score.
The figure for AGTCAGCA is -0.214 E-score; for ACCTCAAC it is -0.0189 E-score.
Turning to AAACTGCG, the binding signal was -0.24 E-score.
Regarding ATGAGTAA, the binding signal is 0.1 E-score.
For ATTTTTAG the value was -0.161 E-score; for AGAGCGAA, -0.173 E-score; for CCCATATC, 0.469 E-score.
On to CCGACGTC, for which the binding signal is -0.0626 E-score.
For GAACATGC the value was -0.208 E-score; for CGCTCTTA, -0.051 E-score; for AAGACGAG, 0.0303 E-score.
For CCCCCTGC, the binding signal was -0.0849 E-score.
TGCATGAA: the binding signal is -0.199 E-score.
For ATGCGCAA the value was -0.184 E-score.
For CGAGAGGA the value was 0.0132 E-score.
As to GTATTCTA, the binding signal came out at 0.191 E-score.
For TCCCGCAA the value was 0.00146 E-score; for CAGCTCAA, -0.0998 E-score.
On to TAACCCCA, for which the binding signal is 0.123 E-score.
The figure for CGTTGCTA is 0.0843 E-score.
Regarding GAGACGTA, the binding signal is 0.137 E-score.
CCGAAAGG: the binding signal is -0.156 E-score.
GTGTCGTA: the binding signal amounted to 0.231 E-score.
The figure for TATGGTAA is 0.166 E-score.
With ATCGAACC, the binding signal came out at 0.141 E-score.
With CTAATTGC, the binding signal amounted to 0.0114 E-score.
The figure for GACTGACA is -0.0589 E-score; for CCTTGGCC it is -0.201 E-score.
The figure for ACAATTAG is -0.187 E-score; for TAAGGGTA it is 0.244 E-score.
Regarding CGCGGCCC, the binding signal is -0.121 E-score.
For AACGCAAG the value was -0.168 E-score.
With ATTCACAG, the binding signal is -0.206 E-score.
The figure for GTCCCGCA is -0.161 E-score; for AGACTGAA it is -0.202 E-score.
